Measurements taken from patent publication US6800434B2, “Peptides as NS3-serine protease inhibitors of hepatitis C virus” (priority 2000, dated 2004).
Starred links: 1 amine or outer side, 2 acyl side, 3 side chain; linkers in the order of their positions; H or OH if unused. Non-standard residues stand in square brackets, D forms with d. Residues, ends and D or L forms follow the SMILES beside them. ξ: configuration not given here. *: point of attachment. X34 = O=C(NC[C@@H]1C[C@@H](C(=O)[*:2])N([*:1])C1)Oc1ccccc1; X5 = O=C(N[C@@H]1C[C@@H](C(=O)[*:2])N([*:1])C1)OCc1ccccc1; X11 = CC(C)(C)OC(=O)N1CCN([*:1])C(C(=O)[*:2])C1; Nleψ(COCO) = CCCC[C@H](N[*:1])C(=O)C(=O)[*:2]; X37 = O=C([C@@H]1CS(=O)(=O)CN1[*:1])[*:2]; X1 = CCC[C@H](N[*:1])C(=O)C(=O)[*:2]; N(CH2CH2COOH)Gly = O=C(O)CCNCC(=O)O; Hyp = O=C(O)[C@@H]1C[C@@H](O)CN1; X3 = CCCC(N[*:1])C(=O)C(=O)[*:2]; Phg = N[C@H](C(=O)O)c1ccccc1; hLeu = CC(C)CC[C@H](N)C(=O)O; Pip = O=C(O)[C@@H]1CCCCN1; hSer = N[C@@H](CCO)C(=O)O; Aze = O=C(O)[C@@H]1CCN1; ξE = NC(CCC(=O)O)C(=O)O; ξV = CC(C)C(N)C(=O)O; OtBu = CC(C)(C)O*; NHAllyl = C=CCN*; OAll = C=CCO*; OPr = CCCO*

Target: Recombinant heterodimeric HCV NS3/NS4A protease (strain 1a) (Hepatitis C virus genotype 1a, UniProt P27958)
Test: biochemical
Conditions: not given

| SMILES | Ki |
| --- | --- |
| CCC[C@H](NC(=O)[C@@H]1C[C@@H](CNC(=O)Oc2ccccc2)CN1C(=O)[C@@H](NC(=O)[C@@H](NC(=O)[C@H](CCC(=O)O)NC(=O)[C@H](CCC(=O)O)NC(C)=O)C(C)C)C(C)C)C(=O)C(=O)NCC(=O)O [Ac-EEVV-P(4t-MeNHCO2Ph)-nV-(CO)-G-OH] (Ac-EEVV[X34][X1]G-OH) | 0.001 to 0.1 µM |

Same assay, conditions: Ki* Range

| SMILES | Ki |
| --- | --- |
| CCC[C@H](NC(=O)[C@@H]1CCCN1C(=O)[C@@H](NC(=O)[C@@H](NC(=O)[C@@H](CCC(=O)O)NC(=O)[C@H](CCC(=O)O)NC(C)=O)C(C)C)C(C)C)C(=O)C(=O)NCC(=O)O [Ac-EdEVVP-nV-(CO)-G-OH] (Ac-E[dE]VVP[X1]G-OH) | 0.001 to 0.1 µM |
| CCCOC(=O)CNC(=O)C(=O)C(CCC)NC(=O)[C@@H]1CCCCN1C(=O)[C@@H](NC(=O)[C@@H](NC(=O)[C@H](CCC(=O)OC(C)(C)C)NC(=O)[C@H](CCC(=O)OC(C)(C)C)NC(C)=O)C(C)C)C(C)C (stereo partly shown) [Compound 76] (Ac-E(OtBu)E(OtBu)VV[Pip][X3]G-OPr) | 1 to 10 µM |
| CCC[C@H](NC(=O)[C@@H]1CCCN1C(=O)[C@@H](NC(=O)[C@@H](NC(=O)[C@H](CCC(=O)O)NC(=O)[C@H](CCC(=O)O)NC(C)=O)C(C)C)c1ccccc1)C(=O)C(=O)NCC(=O)O [Ac-EEV-G(Ph)-P-nV-(CO)-G-OH] (Ac-EEV[Phg]P[X1]G-OH) | 0.101 to 0.999 µM |
| C=CCOC(=O)CNC(=O)C(=O)[C@H](CCCC)NC(=O)[C@@H]1CCCN1C(=O)[C@@H](NC(=O)[C@@H](NC(=O)[C@H](CCC(=O)O)NC(=O)[C@H](CCC(=O)O)NC(C)=O)C(C)C)C(C)C [Ac-EEVVP-nL-(CO)-G-Oallyl] (Ac-EEVVP[Nleψ(COCO)]G-OAll) | 0.001 to 0.1 µM |
| CCC[C@H](NC(=O)CN(CCC(=O)O)C(=O)[C@@H](NC(=O)[C@@H](NC(=O)[C@H](CCC(=O)O)NC(=O)[C@H](CCC(=O)O)NC(C)=O)C(C)C)C(C)C)C(=O)C(=O)NCC(=O)O [Ac-EEVV-G(N-Et(CO2H))-nV-(CO)-G-OH] (Ac-EEVV[N(CH2CH2COOH)Gly][X1]G-OH) | 0.001 to 0.1 µM |
| C=CCOC(=O)CNC(=O)C(=O)C(CCC)NC(=O)[C@@H]1C[C@@H](O)CN1C(=O)[C@@H](NC(=O)[C@@H](NC(=O)[C@H](CCC(=O)O)NC(=O)[C@H](CCC(=O)O)NC(C)=O)C(C)C)C(C)C (stereo partly shown) [Compound 42] (Ac-EEVV[Hyp][X3]G-OAll) | 0.001 to 0.1 µM |
| CCCC(NC(=O)C1CN(C(=O)OC(C)(C)C)CCN1C(=O)[C@@H](NC(=O)[C@@H](NC(=O)[C@H](CCC(=O)OC(C)(C)C)NC(=O)[C@H](CCC(=O)OC(C)(C)C)NC(C)=O)C(C)C)C(C)C)C(=O)C(=O)NCC(=O)O (stereo partly shown) [Compound 34] (Ac-E(OtBu)E(OtBu)VV[X11][X3]G-OH) | 1 to 10 µM |
| C=CCNC(=O)CNC(=O)C(=O)[C@H](CCC)NC(=O)[C@@H]1CCCN1C(=O)[C@@H](NC(=O)[C@@H](NC(=O)[C@H](CCC(=O)O)NC(=O)[C@H](CCC(=O)O)NC(C)=O)C(C)C)C(C)C [Compound 6] (Ac-EEVVP[X1]G-NHAllyl) | 1 to 10 µM |
| CCC[C@H](NC(=O)[C@H](CCC(=O)O)NC(=O)[C@@H](NC(=O)[C@@H](NC(=O)[C@H](CCC(=O)O)NC(=O)[C@H](CCC(=O)O)NC(C)=O)C(C)C)C(C)C)C(=O)C(=O)NCC(=O)O [Ac-EEVVE-nV-(CO)-G-OH] (Ac-EEVVE[X1]G-OH) | 0.001 to 0.1 µM |
| C=CCNC(=O)C(=O)C(CCC)NC(=O)[C@@H]1CCCN1C(=O)[C@H](CCC(C)C)NC(=O)[C@@H](NC(=O)[C@H](CCC(=O)OC(C)(C)C)NC(=O)[C@H](CCC(=O)OC(C)(C)C)NC(C)=O)C(C)C (stereo partly shown) [Compound 68] (Ac-E(OtBu)E(OtBu)V[hLeu]P[X3]-NHAllyl) | 1 to 10 µM |
| CCC[C@H](NC(=O)[C@@H]1CCCN1C(=O)[C@H](CCC(N)=O)NC(=O)[C@@H](NC(=O)[C@H](CCC(=O)O)NC(=O)[C@H](CCC(=O)O)NC(C)=O)C(C)C)C(=O)C(=O)NCC(=O)O [Ac-EEVQP-nV-(CO)-G-OH] (Ac-EEVQP[X1]G-OH) | 1 to 10 µM |
| CCCC(NC(=O)[C@@H]1CCCN1C(=O)[C@@H](NC(=O)[C@H](CCO)NC(=O)[C@H](CCC(=O)O)NC(=O)[C@H](CCC(=O)O)NC(C)=O)C(C)C)C(=O)C(=O)NCC(=O)O (stereo partly shown) [Ac-EEhSVP-nV-(CO)-G-OH] (Ac-EE[hSer]VP[X3]G-OH) | 1 to 10 µM |
| CCC[C@H](NC(=O)[C@@H]1CCN1C(=O)[C@@H](NC(=O)[C@@H](NC(=O)[C@H](CCC(=O)O)NC(=O)[C@H](CCC(=O)O)NC(C)=O)C(C)C)C(C)C)C(=O)C(=O)NCC(=O)O [Ac-EEVV-Aze-nV-(CO)-G-OH] (Ac-EEVV[Aze][X1]G-OH) | 0.001 to 0.1 µM |
| C=CCNC(=O)C(=O)C(CCC)NC(=O)[C@@H]1CS(=O)(=O)CN1C(=O)C(NC(=O)C(NC(=O)C(CCC(=O)O)NC(=O)C(CCC(=O)O)NC(C)=O)C(C)C)C(C)C (stereo partly shown) [Compound 53] (Ac-[ξE][ξE][ξV][ξV][X37][X3]-NHAllyl) | 0.101 to 0.999 µM |
| C=CCOC(=O)CNC(=O)C(=O)C(CCC)NC(=O)[C@@H]1C[C@@H](NC(=O)OCc2ccccc2)CN1C(=O)C(NC(=O)C(NC(=O)C(CCC(=O)OC(C)(C)C)NC(=O)C(CCC(=O)OC(C)(C)C)NC(C)=O)C(C)C)C(C)C (stereo partly shown) [Compound 21] (Ac-[ξE](OtBu)[ξE](OtBu)[ξV][ξV][X5][X3]G-OAll) | 1 to 10 µM |
